# Assay results reported in PubChem BioAssay AID1030 (National Center for Advancing Translational Sciences (NCATS), 2008).
# The whole screen tested about 220,000 compounds, of which about 16,000 (7.3%) were called active. This list was built around the results that the source calls inconclusive (neither active nor inactive); the mix of calls is not that of the screen. The call rests on the fitted dose curve; in most records, active means well fitted inhibition curve with a large enough effect (not every such curve was filed as active); inconclusive means small, poorly fitted or top-dose-only effect, or another doubt; inactive means no such curve, though single readings can be large or run the other way. Potencies of inconclusive entries are left out as doubtful fits.
# Molecular target: Aldehyde dehydrogenase 1A1 (Homo sapiens) (UniProt P00352)
# Assay: qHTS Assay for Inhibitors of Aldehyde Dehydrogenase 1 (ALDH1A1)
# Conditions: Purified ALDH1A1, NADH fluorescence, propionaldehyde substrate; series mostly up to 75.3 µM
# Potency means the concentration at half of the fitted maximal effect; tags describe the fitted curve by direction and shape.
# UniProt P00352, sequence (P00352 whole entry, looked up): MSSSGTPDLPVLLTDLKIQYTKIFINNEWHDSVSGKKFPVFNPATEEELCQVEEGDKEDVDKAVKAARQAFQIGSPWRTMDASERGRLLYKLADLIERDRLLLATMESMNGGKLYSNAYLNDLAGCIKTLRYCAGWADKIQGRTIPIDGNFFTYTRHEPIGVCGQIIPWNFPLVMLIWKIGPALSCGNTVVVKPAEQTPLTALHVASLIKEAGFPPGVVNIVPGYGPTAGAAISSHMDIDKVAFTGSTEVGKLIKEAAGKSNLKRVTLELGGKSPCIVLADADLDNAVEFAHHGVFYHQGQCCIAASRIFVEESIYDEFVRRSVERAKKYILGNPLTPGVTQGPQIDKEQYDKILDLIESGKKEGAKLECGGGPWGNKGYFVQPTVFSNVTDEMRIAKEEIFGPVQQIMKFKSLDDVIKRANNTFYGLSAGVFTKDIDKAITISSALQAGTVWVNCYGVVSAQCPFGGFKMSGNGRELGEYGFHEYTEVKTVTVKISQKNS
row,SMILES,Potency
1,CCCN1CNc2c(c(=O)[nH]c(=S)n2-c2ccccc2Cl)C1,"inconclusive [inhibitor, partial curve]"
2,CCOc1ccc(-n2cccc2C=O)cc1,"inconclusive [inhibitor, single point]"
3,COc1cc2c(cc1OC)-c1cc3ccc4c(c3c[n+]1CC2)OCO4,"inconclusive [inhibitor, single point]"
4,COC(=O)Cc1ccc2sc(-c3ccccc3)nc2c1,inactive
5,CCOc1ccc(/C=C2/SC(=O)NC2=S)cc1,"inconclusive [inhibitor, single point]"
6,COc1cc(C=O)ccc1OCCSc1ccc(Cl)cc1,"inconclusive [inhibitor, single point]"
7,Cc1csc(NC(=O)c2cc(=O)[nH]c3ccc(S(=O)(=O)N4CCOCC4)cc23)n1,"inconclusive [inhibitor, single point]"
8,O=C1CSC(c2ccccc2[N+](=O)[O-])N1c1cccc(F)c1 (centres undefined),"inconclusive [inhibitor, single point]"
9,CC/C(C)=N/Nc1nc(-c2cc3cccc(OC)c3oc2=O)cs1,"inconclusive [inhibitor, single point]"
10,CC(=O)NC(Cc1ccccc1C)C(=O)NC1CCN(c2ncccc2[N+](=O)[O-])CC1 (centres undefined),"inconclusive [inhibitor, single point]"
11,Cc1cccn2c(=O)c(C=O)c(N3CC(C)OC(C)C3)nc12 (centres undefined),inactive
12,CN(/N=C/c1cccnc1)C1=NS(=O)(=O)c2ccccc21,"inconclusive [inhibitor, single point]"
13,CCc1ccc(/C=C2\SC(N3CCOCC3)=NC2=O)cc1,inactive
14,O=C(CN1CCN(Cc2ccc(Cl)cc2)CC1)N/N=C/C=C/c1ccccc1[N+](=O)[O-],"inconclusive [inhibitor, single point]"
15,O=C(NNc1nc(-c2ccc(Br)cc2)cs1)c1ccco1,"inconclusive [inhibitor, single point]"
16,CCOc1ccc(N(C(C)C(=O)NC2CCCCCC2)S(C)(=O)=O)cc1 (centres undefined),"inconclusive [inhibitor, single point]"
17,CCCCCNC(=O)c1ccccc1SC,inactive
18,Clc1ccc(SCCCCn2ccnc2)cc1,"inconclusive [inhibitor, single point]"
19,COc1cccc(C(c2sc3ncnn3c2O)N2CC(C)OC(C)C2)c1 (centres undefined),active: 0.355 µM
20,Cn1c(=O)c2c(nc(CN3CCN(Cc4ccccc4)CC3)n2CCN2CCOCC2)n(C)c1=O,"inconclusive [inhibitor, single point]"
21,C=CCN1C(=O)/C(=C\c2ccc(Oc3nc(N4CCOCC4)nc(N4CCOCC4)n3)c(OC)c2)SC1=S,"inconclusive [inhibitor, full curve]"
22,N/C(=N\OC(=O)COc1ccc([N+](=O)[O-])cc1)c1ccc(Br)cc1,inactive
23,CCOc1ccc(CNC(=O)C(CC)n2nc(C)n3c(cc4occc43)c2=O)cc1OC (centres undefined),inactive

row,SMILES,Potency
1,COc1cc2c(=O)n(CCCC(=O)NCC3CCCO3)c(=O)n(CC(=O)c3ccc(F)cc3)c2cc1OC (centres undefined),"inconclusive [inhibitor, single point]"
2,O=[N+]([O-])c1ccc(N2CCC(=NOCc3ccc(Cl)cc3)CC2)cc1,active: 12.6 µM
3,CC1CCN(S(=O)(=O)c2cccc(-c3csc(-c4cccnc4)n3)c2)CC1,"inconclusive [inhibitor, single point]"
4,O=C1COc2ccc(-c3csc(=Nc4ccc(OC(F)F)cc4)n3CC3CCCO3)cc2N1 (centres undefined),"inconclusive [inhibitor, single point]"
5,Cc1cccn2c(N)c(-c3ccccc3)nc12,"inconclusive [inhibitor, partial curve]"
6,COc1cccc(N2CCN(C(=O)c3ccc(=O)oc3)CC2C)c1 (centres undefined),"inconclusive [inhibitor, partial curve]"
7,N#Cc1c(N2CCN(c3ccc(F)cc3)CC2)nc(N)c2c(N)nc3c(c12)CC(=O)N3C1CC1,"inconclusive [inhibitor, single point]"
8,CN(C)CC1(c2ccccc2)CCCC1,inactive
9,CC1CCCCN1C(=O)COC(=O)c1n[nH]c2ccccc12 (centres undefined),"inconclusive [inhibitor, partial curve]"
10,CC(C)c1cccc(C(C)C)c1NC(=O)COC(=O)C1=COCCO1,"inconclusive [inhibitor, single point]"
11,COc1ccc(N2CCc3c(C)nc4c(OC)cccc4c32)cc1,active: 28.2 µM
12,O=C(Nc1ccc2c(c1)OCCO2)C1CCCN(S(=O)(=O)Cc2ccccc2)C1 (centres undefined),"inconclusive [inhibitor, partial curve]"
13,COC(=O)Nc1nc(-c2cc(Cl)ccc2Cl)cs1,inactive
14,O=C1c2ccccc2C(=O)N1Cc1ccc2c(c1)OCO2,inactive
15,S=C(NCCc1ccccc1)N1CCN(C(c2ccccc2)c2ccccc2)CC1,"inconclusive [inhibitor, single point]"
16,CN(CCO)c1cnccn1,inactive
17,CCCCOc1ccc(C(=O)Nc2ccc(N3CCN(C(C)=O)CC3)cc2)cc1,"inconclusive [inhibitor, single point]"
18,C=CCn1c(CSc2nnc(-c3ccccc3)n2C)n[nH]c1=S,"inconclusive [inhibitor, partial curve]"
19,O=C1c2cccc3c(N4CCCCC4)ccc(c23)C(=O)N1c1ccccn1,"inconclusive [inhibitor, single point]"
20,COCCNc1c2c(c(C#N)c3nc4ccccc4n13)CCCC2,"inconclusive [inhibitor, partial curve]"
21,O=C(c1ccc(S(=O)(=O)N2CCCCC2)cc1)N1CCN(Cc2ccc3c(c2)OCO3)CC1,"inconclusive [inhibitor, single point]"
22,CC(=O)C1=C(C)NC2=C(C(=O)c3ccccc32)C1c1ccccc1 (centres undefined),"inconclusive [inhibitor, partial curve]"
23,Cc1c(O)nc(SCC(=O)Nc2ccc3c4c(cccc24)CC3)n(-c2ccccc2)c1=O,"inconclusive [inhibitor, single point]"

row,SMILES,Potency
1,Cc1nn2cc(-c3ccccc3)nc2[nH]c1=O,inactive
2,COc1ccc(S(=O)(=O)Nc2ccc(F)c(F)c2)cc1Cl,"inconclusive [inhibitor, single point]"
3,CCc1ccc(CCC(=O)Nc2nc(CC(C)=O)ns2)o1,"inconclusive [inhibitor, single point]"
4,Cc1cccc(NC(=O)/C(=C/c2cccc([N+](=O)[O-])c2)NC(=O)c2cccs2)c1,inactive
5,COC(=O)/C(C)=C/CC12OC(C)(C)C3CC(C=C4C(=O)c5cc6c(c(CCC(C)(C)Cl)c5OC431)OC1(C)CCC(=C(C)C)C6C1)C2=O (centres undefined),"inconclusive [inhibitor, partial curve]"
6,CC(C)(O)C(=O)NNC(=S)Nc1ccc(F)c(Cl)c1,"inconclusive [inhibitor, single point]"
7,COc1ccccc1N1CCN(C(=O)C(Cc2ccccc2)NC(=O)C2CCCCC2)CC1 (centres undefined),"inconclusive [inhibitor, partial curve]"
8,Nc1nc(-c2sc3nc4c(cc3c2N)CCCC4)nc(N2CCOCC2)n1,"inconclusive [inhibitor, single point]"
9,Cc1cccc2nc(CSc3nc4[nH]ncc4c(=O)n3-c3ccccc3Cl)cc(=O)n12,"inconclusive [inhibitor, partial curve]"
10,O=S(=O)(c1ccc2c(c1)OCCO2)N1CCC(c2nc3ccc(Cl)cc3[nH]2)CC1,"inconclusive [inhibitor, partial curve]"
11,C/C(=N\NC(=O)CSc1nc(C)cc(C)n1)c1cccc([N+](=O)[O-])c1,inactive
12,CC(C(=O)N1c2ccccc2CCc2ccccc21)n1nnc(-c2ccc(N(C)C)cc2)n1 (centres undefined),"inconclusive [inhibitor, single point]"
13,Cc1cc(C(=O)CSc2nnc(N)s2)c(C)n1Cc1ccco1,inactive
14,Cc1ccc(S(=O)(=O)N/N=C/c2cccc(OC3CSC3)c2)cc1,inactive
15,COc1ccc(/C=N\Nc2ccc([N+](=O)[O-])cc2[N+](=O)[O-])c(C(=O)O)c1OC,"inconclusive [inhibitor, single point]"
16,CCN(C(=O)COC(=O)c1ccc(Cl)cc1N)C1CCCCC1,"inconclusive [inhibitor, single point]"
17,COC(=O)c1sc2nc(-c3ccco3)ccc2c1N,"inconclusive [inhibitor, partial curve]"
18,O=C(Nc1ccccc1)c1sc(N2CCOCC2)nc1-c1ccccc1,"inconclusive [inhibitor, partial curve]"
19,COCCN1C(=O)C(O)=C(C(C)=O)C1c1ccc(F)cc1 (centres undefined),active: 14.1 µM
20,COc1ccc(OCCCC(=O)Nc2nnc(C3CCCO3)s2)cc1 (centres undefined),"inconclusive [inhibitor, single point]"
21,CCC1S/C(=N\S(=O)(=O)c2cccs2)N(C2CCCCC2)C1=O (centres undefined),active: 7.94 µM
22,CCC(c1nnnn1C1CCCC1)N1CCN(c2cccc(OC)c2)CC1 (centres undefined),inactive
23,O=C(O)CC(NC(=O)CCC1CCCCC1)c1cc([N+](=O)[O-])ccc1Cl (centres undefined),"inconclusive [inhibitor, partial curve, poor fit]"
